The campaign covered roughly 310,000 compounds. About 18,000 (5.8%) were called active. Inconclusive results, whose numbers are uncertain, are shown with a selection of clear calls. Calls follow the shape of the dose curve; as a rule, active = well fitted inhibition curve with a large enough effect; inconclusive = small, poorly fitted or top-dose-only effect, or another doubt; inactive = no such curve, though single readings can be large or run the other way. No potency is given beside an inconclusive call; the fits are too rough.
Experiment: Primary qHTS for delayed death inhibitors of the malarial parasite plastid, 48 hour incubation
Details: P. falciparum luciferase growth in erythrocytes; series mostly up to 28.7 µM; activity change, negative = inhibition: at the top concentration
Summary of the method: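 Firefly luciferase activity from engineered P. falciparum reports growth; inhibitors lower the luminescent signal. Cultures contained 2% hematocrit erythrocytes at 0.1% final parasitemia.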
For `COc1cccc(C2Nc3ccc4ccccc4c3C3=C2C(=O)CCC3)c1O` (stereo not given), the Potency was inconclusive [inhibitor, partial curve, poor fit].
For `CCSCc1nnc(SCC(=O)Nc2nc3ccccc3s2)n1C`, the Potency was inconclusive [inhibitor, single point].
In the case of `FC(F)(F)c1nnc2ccc(NCc3ccccc3)nn12`, the Potency is reported as inconclusive [inhibitor, partial curve, poor fit].
For `O=S1(=O)CC(O)C(Nc2ccc(Cl)cc2)C1` (stereo not given), the “activity change, negative = inhibition” value was inactive: 9.93%.
In the case of `CN(C)C(=S)Nc1ccc(Br)c(Cl)c1`, the “activity change, negative = inhibition” value is reported as inactive: 10.2%.
With `O=C1CN(C(=O)CCCc2c[nH]c3ccccc23)c2ccccc2N1` the Potency was active: 9.28 µM.
With `CCC(=O)NC(NC(=S)Nc1ccccc1Br)C(Cl)(Cl)Cl` (stereo not given) the Potency was inconclusive [inhibitor, single point].
With `CCCC(C(=O)NC1CCCC1)N(C(=O)Cn1nnc(-c2ccc(C)o2)n1)c1cccc(O)c1` (stereo not given) the Potency was inconclusive [inhibitor, single point].
For `CCN(CC)C(=O)CC(c1ccccc1)c1ccco1` (stereo not given), the Potency was inconclusive [inhibitor, full curve].
In the case of `COc1ccc(CC(=O)Nc2cc(Cl)ccc2N2CCCC2)cc1`, the Potency is reported as inconclusive [inhibitor, partial curve, poor fit].
For `Cc1cc(C(=O)N2CCc3ccccc32)n(-c2ccccc2)n1`, the “activity change, negative = inhibition” value was inactive: -16.8%.
With `COc1ccccc1NC(=O)NCCc1ccccc1` the Potency was inconclusive [inhibitor, partial curve].
For `COc1ccc(C(=O)Nc2ccc(Cl)c(S(=O)(=O)Nc3ccccc3OC)c2)cc1`, the Potency was inconclusive [inhibitor, single point].
With `CCOC(=O)C1=C(CCl)NC(=O)NC1c1ccc2c(c1)OCO2` (stereo not given) the Potency was inconclusive [inhibitor, full curve].
With `CN(C)S(=O)(=O)c1cccc(COC(=O)c2cc([N+](=O)[O-])ccc2N2CCOCC2)c1` the Potency was active: 13.1 µM.
For `COc1ccc(NC(=S)NC2CCN(Cc3ccccc3)CC2)cc1OC`, the “activity change, negative = inhibition” value was inactive: 8.78%.
In the case of `O=C(Nc1ccc(-c2nc3ccccc3o2)cc1)c1cc(-n2cnnc2)ccc1Cl`, the Potency is reported as active: 11.7 µM.
With `CN1CCSc2ccc(C(=O)Nc3cc(F)ccc3F)cc21` the “activity change, negative = inhibition” value was inactive: 193%.
With `Cc1ccc(C[C@@H](NS(=O)(=O)c2ccc(C(=O)O)cc2)C(=O)O)cc1` the “activity change, negative = inhibition” value was inactive: -22.6%.
With `O=C(NC(=S)NCc1ccccc1)c1ccccc1` the “activity change, negative = inhibition” value was inactive: -1.96%.
With `Cc1c(N=C2C=CC(=O)c3ccccc32)c(=O)n(-c2ccccc2)n1C` the Potency was inconclusive [inhibitor, single point].
In the case of `CC(=O)N[C@@H](Cc1c[nH]c2ccccc12)C(=O)OCC(=O)NCc1ccc2c(c1)OCO2`, the “activity change, negative = inhibition” value is reported as inactive: 5.83%.
With `COc1cc2c(cc1OC)-c1cc(Nc3ccc4c(c3)OCCO4)nc(=O)n1CC2` the “activity change, negative = inhibition” value was inactive: 98.4%.
For `COc1ccc(-c2ccc(C#N)c(OC(=O)c3c(Cl)cccc3Cl)n2)cc1`, the Potency was inconclusive [inhibitor, single point].
With `CCOC(=O)c1c(C)[nH]c(C)c1C(=O)CSc1nc2ccccc2c(=O)n1-c1ccc(Cl)cc1` the Potency was inconclusive [inhibitor, single point].
With `CCCS(=O)(=O)c1c(S(=O)(=O)CCC)c2cc(CC)ccn2c1C(=O)OC` the Potency was inconclusive [inhibitor, partial curve, poor fit].
In the case of `Cc1nc(Nc2ccccc2)sc1C(=O)c1ccc(F)cc1`, the Potency is reported as inconclusive [inhibitor, single point].
With `O=C(CSc1ccccc1)NCC(c1ccco1)N1CCCCC1` (stereo not given) the Potency was inconclusive [inhibitor, single point].
In the case of `CSc1ccccc1OCc1cc(C(=O)N2CCN3CCCC3C2)no1` (stereo not given), the “activity change, negative = inhibition” value is reported as inactive: 8.48%.
With `O=C(N/N=C/c1cccnc1)C12CC3CC(CC(C3)C1)C2` the Potency was inconclusive [inhibitor, partial curve, poor fit].
With `CCCc1nnc(NC(=O)CCC(=O)NCCc2ccc(Cl)cc2)s1` the “activity change, negative = inhibition” value was inactive: 15.6%.
In the case of `CCCCN(C(=O)c1cc(-c2ccc(F)cc2)nc2ccccc12)c1c(N)n(CCCC)c(=O)[nH]c1=O`, the Potency is reported as inconclusive [inhibitor, partial curve].
With `CCN=C(Nc1ccc2c(c1)OCO2)SC1CC(=O)N(c2ccc(OC)cc2)C1=O` (stereo not given) the Potency was inconclusive [inhibitor, single point].
For `COc1cccc(Cn2c(Oc3cccc(C)c3)nc3c2c(=O)n(C)c(=O)n3C)c1`, the Potency was inconclusive [inhibitor, full curve].
In the case of `COc1ccccc1C(=O)Nc1nnc(S(=O)(=O)N2CCN(c3ccc(F)cc3)CC2)s1`, the “activity change, negative = inhibition” value is reported as inactive: -22.8%.
With `COc1ccc(-n2c(Cc3cccn3C)nnc2SCC(=O)N2CCCC2)cc1` the Potency was inconclusive [inhibitor, partial curve, poor fit].
For `O=C(CCN1CCCCC1)Nc1ccc(Br)cc1C(=O)c1ccccc1`, the Potency was inconclusive [inhibitor, single point].
In the case of `CSc1cccc(NC(=S)N(Cc2ccc(C)cc2)Cc2ccccn2)c1`, the Potency is reported as inconclusive [inhibitor, single point].
For `COC(=O)c1ccc(NC(=S)NCc2ccco2)cc1`, the “activity change, negative = inhibition” value was inactive: 18.2%.
For `CCCCN1C(=O)C(=O)N(CC(=O)N2CCN(c3ccccc3)CC2)C1=O`, the Potency was inconclusive [inhibitor, partial curve, poor fit].
In the case of `COc1ccccc1CNC(=O)C(Cc1c[nH]c2ccccc12)NC(=O)OCc1ccccc1` (stereo not given), the “activity change, negative = inhibition” value is reported as inactive: -17.6%.
With `CCCOC(=O)c1ccc(Oc2coc3c(CN(CC)CC)c(O)ccc3c2=O)cc1` the Potency was inconclusive [inhibitor, single point].
In the case of `Cc1ccc(N(C)C(=O)CN(C)S(=O)(=O)c2ccc3c(c2)n(C)c(=O)c(=O)n3C)cc1`, the Potency is reported as inconclusive [inhibitor, partial curve].
With `Cn1cccc1CC(=O)N/N=C/c1cccc2ccccc12` the Potency was inconclusive [inhibitor, single point].
In the case of `COc1ccc(/C=C/C(=O)Nc2cccc(S(=O)(=O)NC3=NCCCCC3)c2)c(OC)c1`, the Potency is reported as inconclusive [inhibitor, single point].
For `O=C(CSc1nc(-c2ccccc2)nc2ccc(F)cc12)Nc1cccc(C(=O)O)c1`, the “activity change, negative = inhibition” value was inactive: 113%.
For `O=C(c1nc2ccc(Cl)cn2c1CN1CCC[C@H]1CO)N1CCCCCCC1`, the Potency was inconclusive [inhibitor, single point].
For `NC(=O)c1nc[nH]c1C(=O)Nc1cccc(C(F)(F)F)c1`, the “activity change, negative = inhibition” value was inactive: 43.9%.
With `COc1cccc(N(C(=O)c2snc(C(N)=O)c2N)C(C(=O)NCC2CCCO2)c2ccc(F)cc2)c1` (stereo not given) the Potency was inconclusive [inhibitor, single point].
For `CCOC(=O)CSc1nnc(-c2ccco2)n1-c1ccc(C)cc1`, the “activity change, negative = inhibition” value was inactive: 10%.
With `COc1ccc(NC(=O)c2cc(-c3ccccn3)nc3ccccc23)cc1S(=O)(=O)N(C)C` the Potency was inconclusive [inhibitor, partial curve, poor fit].
For `C/C(=N\NC(=O)c1cc(C(C)(C)C)[nH]n1)C12CC3CC(CC(C3)C1)C2`, the Potency was active: 2.62 µM.
For `CCn1cc(C(=O)OCC(=O)Nc2c(C)n(C)n(-c3ccccc3)c2=O)c(=O)c2ccc(C)nc21`, the “activity change, negative = inhibition” value was inactive: 13.2%.
For `COc1c(C)cc(Br)cc1C(=O)Nc1ccc(N2CCN(S(C)(=O)=O)CC2)cc1`, the “activity change, negative = inhibition” value was inactive: 7.89%.
With `CCC1NC(=S)N(C2CCCCC2)C1=O` (stereo not given) the Potency was inconclusive [inhibitor, single point].
For `O=C(CC1OC(=O)c2ccccc21)Nc1ccccc1N1CCOCC1` (stereo not given), the Potency was inconclusive [inhibitor, single point].
In the case of `CSc1nnnn1-c1ccc(Cl)cc1`, the “activity change, negative = inhibition” value is reported as inactive: 14%.
In the case of `CN(C)CC[n+]1ccc(C(=O)c2ccccc2)cc1`, the Potency is reported as inconclusive [inhibitor, single point].
In the case of `CCN(CC(=O)N1CCOCC1)S(=O)(=O)c1ccc(F)cc1`, the “activity change, negative = inhibition” value is reported as inactive: 29.3%.
In the case of `O=C(O)C1C2C=CC(C2)C1C(=O)Nc1cccc(F)c1` (stereo not given), the “activity change, negative = inhibition” value is reported as inactive: -29.8%.
In the case of `O=C(COc1ccc2c3c(c(=O)oc2c1)CCCC3)NCc1cccnc1`, the Potency is reported as inconclusive [inhibitor, partial curve, poor fit].
For `O=C(O)c1cccc(NS(=O)(=O)c2ccc(S(=O)(=O)N3CCOCC3)cc2)c1`, the “activity change, negative = inhibition” value was inactive: 11.7%.
With `CCCOc1ccc(C(=O)CCC(=O)OCC(=O)Nc2ccc(OCC)cc2)cc1` the “activity change, negative = inhibition” value was inactive: 18.3%.
In the case of `O=C1CSC(c2nn(-c3ccccc3)cc2-c2cc3ccccc3oc2=O)N1Cc1ccco1` (stereo not given), the Potency is reported as inconclusive [inhibitor, single point].
In the case of `CCNS(=O)(=O)c1ccc(CCC(=O)Nc2cc(Cl)ccc2Oc2ccccc2)cc1`, the Potency is reported as inconclusive [inhibitor, full curve].
In the case of `O=C(CNC(=O)c1ccc(S(=O)(=O)N2CCCCC2)cc1)N/N=C/c1ccco1`, the Potency is reported as inconclusive [inhibitor, single point].
With `CC(=O)N1c2ccc(S(=O)(=O)N3CCCC3)cc2CC1C(=O)NCc1ccc(OC(C)C)cc1` (stereo not given) the Potency was inconclusive [inhibitor, partial curve, poor fit].
For `CC(C)CCNC(=O)c1onc(CSc2ccc(F)cc2)c1C(=O)NCCC(C)C`, the Potency was active: 4.15 µM.
In the case of `CC(C)C12CN(C(=O)c3ccccc3[N+](=O)[O-])CC(C(C)C)(CN(C(=O)c3ccccc3[N+](=O)[O-])C1)C2=O`, the Potency is reported as inconclusive [inhibitor, partial curve].
In the case of `COc1ccc(-n2c(CCc3ccccc3)nnc2SCC(=O)c2ccccc2)cc1`, the Potency is reported as inconclusive [inhibitor, single point].

From PubChem BioAssay AID504832 (National Center for Advancing Translational Sciences (NCATS), 2011)
% is scaled to controls: 0 for no effect and ±100 for the full control effect; potency is read from the fitted curve at half-maximal effect; tags tell the direction and shape of the fitted curve.
